Test results reported in paper PMC4336329 (PLoS ONE, 2015).
The whole screen tested about 310,000 compounds, of which about 14,000 (4.5%) showed an effect of 50% or more. The effect is printed as a negative number. The list shows a part of the results.

target: human ether-à-go-go-related gene (hERG) potassium channel (human, UniProt Q12809); test: primary screen, population patch clamp on CHO cells stably expressing hERG
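Also: peak tail current of the secondary pulse compared with the same well before compound.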

Sequence of human ether-à-go-go-related gene (hERG) potassium channel (Q12809 whole entry, looked up): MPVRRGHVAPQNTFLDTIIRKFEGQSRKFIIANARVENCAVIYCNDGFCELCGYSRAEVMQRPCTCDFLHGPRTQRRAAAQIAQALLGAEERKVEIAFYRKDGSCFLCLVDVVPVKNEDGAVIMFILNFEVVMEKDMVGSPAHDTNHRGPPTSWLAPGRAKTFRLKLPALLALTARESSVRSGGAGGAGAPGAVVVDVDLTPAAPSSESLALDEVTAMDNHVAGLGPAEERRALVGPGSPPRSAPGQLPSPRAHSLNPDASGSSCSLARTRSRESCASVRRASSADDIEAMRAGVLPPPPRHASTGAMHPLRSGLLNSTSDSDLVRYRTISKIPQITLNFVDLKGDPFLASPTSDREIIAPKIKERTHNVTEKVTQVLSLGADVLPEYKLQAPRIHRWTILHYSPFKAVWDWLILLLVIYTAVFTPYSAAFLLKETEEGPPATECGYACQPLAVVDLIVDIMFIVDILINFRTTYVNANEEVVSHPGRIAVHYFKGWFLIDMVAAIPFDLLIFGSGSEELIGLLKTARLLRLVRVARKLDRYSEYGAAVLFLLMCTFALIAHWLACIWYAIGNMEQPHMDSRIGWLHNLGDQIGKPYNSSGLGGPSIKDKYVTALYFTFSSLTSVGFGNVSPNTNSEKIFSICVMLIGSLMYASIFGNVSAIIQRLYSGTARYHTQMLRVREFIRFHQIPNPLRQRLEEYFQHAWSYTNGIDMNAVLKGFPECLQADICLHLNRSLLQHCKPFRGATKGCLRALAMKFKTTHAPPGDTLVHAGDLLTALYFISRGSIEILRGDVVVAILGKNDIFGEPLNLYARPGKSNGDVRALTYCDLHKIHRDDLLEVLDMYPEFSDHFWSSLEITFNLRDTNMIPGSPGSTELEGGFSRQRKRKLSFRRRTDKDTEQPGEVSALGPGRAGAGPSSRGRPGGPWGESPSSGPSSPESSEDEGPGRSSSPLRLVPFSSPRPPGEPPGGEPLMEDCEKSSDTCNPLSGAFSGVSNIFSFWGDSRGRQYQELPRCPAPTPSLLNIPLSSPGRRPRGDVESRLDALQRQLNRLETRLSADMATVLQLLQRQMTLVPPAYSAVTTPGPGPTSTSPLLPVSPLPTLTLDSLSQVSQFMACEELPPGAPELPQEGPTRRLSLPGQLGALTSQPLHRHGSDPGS

Structure (SMILES) | hERG current change (%, negative = inhibition) at 10uM
CC[N+]1(CC)CC2CCC(C)(C1)C2(C)C.[I-] (centres unmarked) | 7.2%
CCC(C)NC(=O)CN(c1cc(Cl)ccc1OC)S(C)(=O)=O (centres unmarked) | -3.02%
Cc1nn(-c2ccccc2)c(C)c1NC(=O)COc1ccc(Br)cc1Cl | -8.91%
C=CCOc1ccc2c(CC)cc(=O)oc2c1C | -15.9%
O=[N+]([O-])c1ccc(Cl)cc1N1CCCCC1 | 38.3%
O=C(c1ccccc1-c1ccccc1)N1CCCC1 | 5.04%
CCOC(=O)c1cnc(-n2nc(C)cc2C)nc1NCc1ccccc1 | -34.7%
CN(Cc1ccccc1)C(=O)c1ccccc1C(=O)O | 37.5%
OC(COCc1ccccc1)Cn1cnc2ccccc21 (centres unmarked) | -4.35%
C/C(=N/NC(=O)NC12CC3CC(CC(C3)C1)C2)c1ccccc1 | 3.09%
CSc1nc2ccccc2cc1/C=C(\C#N)c1ccccc1 | 2.83%
COc1cccc(/C=N/NC(=O)c2csc(-n3nc(C)cc3C(F)(F)F)n2)c1 | 4.54%
O=C(O)CNC(=O)c1ccc(S(=O)(=O)N2CCOCC2)cc1 | -1.58%
Nc1nnnn1/N=C/c1cc(Cl)cc(Cl)c1OCc1ccc(Cl)cc1Cl | -0.427%
O=C(COC(=O)c1cc([N+](=O)[O-])ccc1N1CCOCC1)c1ccccc1 | -20.1%
CC1(C)Nc2ccccc2N(CC(=O)N2CCCCC2)C1=O | 7.8%
COc1ccc(NC(=O)CNC(=O)c2nn(-c3ccc(OC)c(OC)c3)c(=O)c3ccccc23)c(OC)c1 | 14.5%
CCC(C)Sc1ccc([C@@H]2[C@@H]3C(=O)N(C)C(=O)[C@@H]3[C@]3(C(=O)OC)CCCCN23)cc1.O=C(O)C(F)(F)F (some centres unmarked) | 15.3%
COc1ccc(COc2cc(-c3cccc(OC)c3)nc3ccc(N)cc23)cc1 | -13.1%
O=C1C(=O)N(CC2CCCO2)C(c2ccco2)/C1=C(/O)c1ccc(F)cc1 (centres unmarked) | -13.4%
COc1ccc(CCN2CCCC(CN(C)Cc3cc(OC)ccc3OC)C2)cc1 (centres unmarked) | -69.1%
CCCCCc1cc(=O)oc2c(C(CCN3CCCC(C)C3)c3ccc4c(c3)OCO4)c(OC)cc(OC)c12 (centres unmarked) | -7.33%

Structure (SMILES) | hERG current change (%, negative = inhibition) at 10uM
COc1ccc2c(Cl)c(C(=O)NCCCn3ccnc3)sc2c1Cl | 6.4%
COc1ccc(CSCC(=O)N/N=C/c2ccccc2OCc2ccccc2)cc1 | 6.71%
CCCO/N=C1/C(=O)N(c2ccccc2)c2ccccc21 | -42.5%
CCc1ccc(OCC(=O)NNC(=S)NC(=O)C2CCCCC2)c(Br)c1 | -9.29%
CCC(=O)N1CCN(CCN=Cc2c(O)n(C)c(=O)n(C)c2=O)CC1 | 20.3%
CCOc1ccccc1OCC(=O)Nc1nnc(C)s1 | 6.12%
COc1ccc2cc3cc(C(=O)NCCC(C)C)oc3nc2c1 | 6.93%
CCOC(=O)C1CCN(C(C)C(=O)c2c[nH]c3ccccc23)CC1 (centres unmarked) | -42.2%
CC(=O)Nn1cnc2c(c1=O)C1(CCCCC1)Cc1ccccc1-2 | 4.44%
CCCCCc1ccc(OCCCC[n+]2cccc(C)c2)c(CCCCC)c1.[Cl-] | -71.1%
CC1CCCN(CCCNC(=O)CN2C(=O)CSc3ccc(S(=O)(=O)N4CCOCC4)cc32)C1 (centres unmarked) | 19.5%
COc1ccc(CCNC(=O)CCc2cc(OC)c(OC)c(OC)c2)cc1 | 15.1%
O=C(O)C1Cc2ccccc2CN1C(=O)c1ccco1 (centres unmarked) | 28.8%
COC(=O)CCC(=O)OC1(C)C(=O)C=C2C=C(C3CC3)N(CC3CC3)C=C2C1=O (centres unmarked) | 13.3%
COCCN(C(=O)Cc1cccs1)C(C(=O)NC1CCCC1)c1ccc(OC)c(OC)c1 (centres unmarked) | 6.93%
O=C(N/C=C/c1ccccc1)Nc1ccc(Cl)cc1 | 10.3%
Cc1nnc(SC(C)C(=O)N2CCc3ccccc32)s1 (centres unmarked) | 11.8%
C#CC[N+]1(CC#Cc2ccccc2)CCCCC1.[I-] | 2.16%
CC1(C)C(=O)Nc2ccccc2N1C(=O)c1ccc([N+](=O)[O-])cc1 | -4.71%
COc1cccc(CNC(=O)C2CCCN(C(=O)c3ccc(Cl)cc3)C2)c1 (centres unmarked) | -36%
Cc1cc2c(=O)n(C)c(SCC(=O)Nc3ccccc3C)nc2s1 | -8.62%
Fc1ccc(Oc2cc(N3CCOCC3)nc(-c3ccccc3)n2)c(F)c1 | 12.5%
